The chains are these.
B1: ENSG00000198589:be:win_5101|CDS|ENSG00000198589|bound_else_gene|NA|bound_elsewhere_windowed (ssRNA)
RNA: GGGAGUUCUACAGUCCGACGAUCCCACCAGCCUGCCUUGGAGCCCUUGGUGAUCUAUCUGUGGAACAACCCGUGCAGUUCAGAUCUUUUGACAGAAGUGUCAUUGUUGCAGCAAAAAAGUCAGCAGUCUCACCUUCCACCUUUCAACAGAGGAUUGAGCAUCA
B2: chr4:17843545:17843646:+|3pUTR|ENSG00000109805|msi1|FALSE|unique (ssRNA)
RNA: GGGAGUUCUACAGUCCGACGAUCCUGUGCGCUUCCACGUUACUUUGGCCUGUAUUAAAGCAGUAGAGCAGCAUCAGUUAUUAUAGUCCAGAAAAAGUGUGCAUCAGUCAGUCACACAGAUUUAUCACAAUCUGAGGUGGGCCUCAACAGAGGAUUGAGCAUCA
B3: chr21:36753219:36753320:-|3pUTR|ENSG00000159267|msi1|FALSE|bound_elsewhere (ssRNA)
RNA: GGGAGUUCUACAGUCCGACGAUCGUUUCAGAUUUACUCUGAAAUGUGGAGCAUUCCUGCAAGACUGUGCAGCUCACGGAAUAUAGAAGACAUGGCAUUUUACUCAGAAGUCAUAAGUUUUUGCCCCCCUCAUUUACCUCGUAUCAACAGAGGAUUGAGCAUCA
B4: chr2:200823707:200823808:+|3pUTR|ENSG00000082153|msi1|FALSE|bound_elsewhere (ssRNA)
RNA: GGGAGUUCUACAGUCCGACGAUCUGAGUAACUUUGAUAAAGUUUUUCAUGCACAGGCAAAAUGUAUUCACUAGAUUUCUACGUAGUGAUCUGCUUUUACUUUGUAAUUUGUAGUUCUCAAAAGACUUUUUUUUAAAAAAAUAACAACAGAGGAUUGAGCAUCA
B5: chr20:25297698:25297799:+|3pUTR|ENSG00000100994|msi1|total|mutant (ssRNA)
RNA: GGGAGUUCUACAGUCCGACGAUCCCCAAGAGAGAGGGCAGGGAACAGGCUACUGUCCUUCCCUGUGGAAUUGCCGAGAAAUCCCGCACCUUGCAUGCUGGAUCUGGGCUGCGGGGAGGCUCUUUUUCUCCCUGGCCUCCAGUGCAACAGAGGAUUGAGCAUCA
B6: ENSG00000070961:be:win_2551|CDS|ENSG00000070961|bound_else_gene|NA|bound_elsewhere_windowed (ssRNA)
RNA: GGGAGUUCUACAGUCCGACGAUCAGCAUCUCAAAAUUCCUUCAGUUCCAACUUACUGUUAAUGUAGUAGCAGUGAUUGUUGCUUUUACGGGCGCCUGCAUUACUCAAGACUCACCGCUUAAGGCUGUGCAGAUGCUGUGGGUACAACAGAGGAUUGAGCAUCA
B7: chr1:214641902:214642005:+|CDS|ENSG00000117724|unk|total|mutant (ssRNA)
RNA: GGGAGUUCUACAGUCCGACGAUCAGAAAUCAAUGUAAUUUUAAACCUCAGAUGGAUCUUGAAGUUAAAGAAAUUUCUCCCGACCGUUAUAAUGCGCAGUUGGUGCAAUCCGAAGCUAUGCUAAGAAAUAAGGAAUUAAAACUUCAACAGAGGAUUGAGCAUCA
B8: chr18:9400975:9401076:+|3pUTR|ENSG00000128791|msi1|FALSE|unique (ssRNA)
RNA: GGGAGUUCUACAGUCCGACGAUCUAUAAAAAUAGAUAAUGCUCUUGGACACAUUUUGUAUUAUUCAUGAUCUGAAUAGUAGUUAGUUAAAAGAUCAUUUGUAAUAUUAUGAUCAACUGUUAUAAAUUAAGGUCUUAAUACCUUCAACAGAGGAUUGAGCAUCA
B9: chr16:70157515:70157662:+|3pUTR|ENSG00000090857|msi1|total|mutant (ssRNA)
RNA: GGGAGUUCUACAGUCCGACGAUCCUCCCUAUAAUUUUCUUCAUCUCUUGCUAAUCUCUAUAAUAAGGUUGCUUUUUCUUUCUCCGUUGAGUAAACAAGUAAGCCACAGUGUUUGAAAGGGAAAAACCAUAUUGCCUUGUGUGUCAACAGAGGAUUGAGCAUCA
B10: chrX:13708825:13708941:+|CDS|ENSG00000123595|unk|total|mutant (ssRNA)
RNA: GGGAGUUCUACAGUCCGACGAUCGAGUUCACUUAUGAACAGAUAUGUAACUAAUAAGUUUGAUACCCAGCUCUUCCAUACAACCGGUGUGGAAUUUUUAAAUAAAGAUUUGGAAGUGGAUGGACAUUUUGUUACCAUGCAGAUCAACAGAGGAUUGAGCAUCA
B11: chr18:5392435:5392536:-|3pUTR|ENSG00000082397|msi1|FALSE|unique (ssRNA)
RNA: GGGAGUUCUACAGUCCGACGAUCAAGCCUUAAACUGUACAGAAUUUCCACUGUAAUUAAAACUAUUUAGUGUUAGUUAUAAAUAGCCUUCAAAAAGAGAGAUUCUCCAUUACACGAUCACCUGCAUCACAGCCCAUGGUGAAUCAACAGAGGAUUGAGCAUCA
B12: chr8:76864132:76864233:+|CDS|ENSG00000091656|msi1|FALSE|bound_elsewhere (ssRNA)
RNA: GGGAGUUCUACAGUCCGACGAUCUCAAGCUUGCACAAAGAGAAAACAAUCAAACAAGCAAUGAGAAAUGCCAAAGAGCAUGUUAGAUUAUUACCUCACUCAGUCUGCUCCCCUAAUCCUAACACCACAUCUACCUCGCAGUCUCAACAGAGGAUUGAGCAUCA
B13: chr1:149903635:149903737:-|3pUTR|ENSG00000159164|unk|total|mutant (ssRNA)
RNA: GGGAGUUCUACAGUCCGACGAUCGGCUGCUUUCUUUGGUGCCCUCCCCUCACCCCACUGCCGCUGUGACGUGUUGCCGUUUUCCGAUGUUUGUAAAAUGUUUAAAAAAAUGUUAAAAGGAAAAAAGUGAAAAUAACAAAAAAGCAACAGAGGAUUGAGCAUCA
B14: chr7:152649051:152649153:-|CDS|ENSG00000196584|unk|total|mutant (ssRNA)
RNA: GGGAGUUCUACAGUCCGACGAUCAGCUCUGAAGAAAUAAUCAAAUACUGCCUGGGAAGAUUUUUUUUGGUGUACUGCAGCCGCCGCACCCACUUACUUCUUACACUUUACUCACCCGAAAGUAUGUUUUGCCGUCACCCAUCUCAACAGAGGAUUGAGCAUCA
B15: chr6:109481629:109481730:-|CDS|ENSG00000112365|unk|total|mutant (ssRNA)
RNA: GGGAGUUCUACAGUCCGACGAUCGCUCAGUUCUUAAAAGUCUAUGACCUGGUAAAGGCUUACACAGACUUCCAAAAUAAUCACCGCUCCCCAAAGCCAACAACUUUGAACACUGCUGGUGCCCCAGUGGUUGUUAUCUCUAAUCAACAGAGGAUUGAGCAUCA
B16: chr22:40861067:40861994:-|CDS|ENSG00000172404|control|control|control (ssRNA)
RNA: GGGAGUUCUACAGUCCGACGAUCGAAAGUGAUCAAGAAAGAGAAGCUGAAGAUAAUGGAGAGUUGACAUUUUUUCUUGUAAAUAGUGUGGCCAAUGAAGAGGGCUUUGCAAAAGAAUGCAGCUGGAGAACACAGUCAUUCAACCAACAGAGGAUUGAGCAUCA
B17: ENSG00000124766:be:win_601|CDS|ENSG00000124766|bound_else_gene|NA|bound_elsewhere_windowed (ssRNA)
RNA: GGGAGUUCUACAGUCCGACGAUCUCCAAAGUGGCGGGCGGCGCGGGCGGUGGGGUUAGCAAACCGCACGCCAAGCUCAUCCUGGCAGGCGGCGGCGGCGGCGGGAAAGCAGCGGCUGCCGCCGCCGCCUCCUUCGCCGCCGAACAACAGAGGAUUGAGCAUCA
B18: chr1:151249111:151249212:+|3pUTR|ENSG00000143398|unk|FALSE|unique (ssRNA)
RNA: GGGAGUUCUACAGUCCGACGAUCGCAGAUUGUUGAAUUCCUGUUCUAUCCCUUCUCUAUCCCACCCUGCCUUGAUAAUAUGUUAGCCCAUACCCCAAAUAACUGUCUAUAUUAGACACCCCCAGCCAGUUUCUGGCUGCCUGUCAACAGAGGAUUGAGCAUCA
B19: chr6:145382534:145384023:-|three_prime_utr|ENSG00000112425|control|control|control (ssRNA)
RNA: GGGAGUUCUACAGUCCGACGAUCUCAACAUGAUUUAACAGAUCUAUAUGUUAAAGGAGAAAAAGAUAUGUGGAUGCUAUCAAUAGUAGCUGAAAAGCAUUUUCAGAAAUCUGUAAGUAGAGGAAAUGUAUUCAUAUGUUUCUACAACAGAGGAUUGAGCAUCA
B20: chr17:29262523:29262623:-|3pUTR|ENSG00000108256|msi1_unk|FALSE|overlapping (ssRNA)
RNA: GGGAGUUCUACAGUCCGACGAUCACUUUGACUGAUAUUGUAAUUUUCAAAUGUAUAAUAUGUUUACAGAUGUGCCCUGCAUUUAGUCUGCCUUGUUCCUAUUUUGAUUUUUGUUGAGUCUCCUGCCUGCUUGCCAAAAGCUAGCAACAGAGGAUUGAGCAUCA
B21: chr4:165277806:165277983:-|three_prime_utr|ENSG00000229894|control|control|control (ssRNA)
RNA: GGGAGUUCUACAGUCCGACGAUCCUUUUUACAUAAUGAAAGAACAACCCAGCAAUUGUCUCUUAAUGCGAUGACACUAUUCAUAGACUUUGAUUUUAUUUAUAAGCCACUUGCUGCGUGACCCUCCAAGUAGACCUGUGGCUUCAACAGAGGAUUGAGCAUCA
B22: chr16:46799225:46799326:-|3pUTR|ENSG00000155330|unk|total|mutant (ssRNA)
RNA: GGGAGUUCUACAGUCCGACGAUCUUACAUUUGGAAGUACAUGUAUAUAUGUUUAUAUAUUUUUAUUCUCAGGAUCUAUUUUCCCGGGAACUAUUUUUUUAAAUUAUUCUUUUGUGCUGCCUUAACCCAUUUAUUACCGUUUGACAACAGAGGAUUGAGCAUCA

The other results are listed elsewhere or left out.

The assay has as its target MSI1 full-length (mouse, UniProt Q61474 1-362). Description: nsRBNS (natural sequence RNA bind-n-seq); RBNS binding buffer (assumed for nsRBNS): 25 mM Tris pH 7.5, 150 mM KCl, 3 mM MgCl2, 0.01% Triton X-100, 500 ug/ml BSA, 20 U/ml SUPERase-In, 4 C; UNK is unkempt and MSI1 is Musashi-1; names of the RNAs are library labels; protein concentration not given here; high values mean tight binding.
Sequence of UniProt Q61474 (Q61474 whole entry): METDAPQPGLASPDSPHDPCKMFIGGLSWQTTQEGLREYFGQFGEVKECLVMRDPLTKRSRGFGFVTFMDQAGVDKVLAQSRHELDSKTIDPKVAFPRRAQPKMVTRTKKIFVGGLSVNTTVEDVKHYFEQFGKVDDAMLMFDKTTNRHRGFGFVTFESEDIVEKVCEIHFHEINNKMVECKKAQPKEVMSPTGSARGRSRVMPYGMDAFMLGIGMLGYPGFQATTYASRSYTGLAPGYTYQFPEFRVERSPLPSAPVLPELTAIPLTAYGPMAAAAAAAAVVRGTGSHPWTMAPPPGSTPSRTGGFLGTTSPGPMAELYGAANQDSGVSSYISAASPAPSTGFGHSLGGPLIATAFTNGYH
The molecule B1 yielded a binding signal of 0.584 enrichment R.
As to B2, the binding signal worked out at 4.57 enrichment R.
B3 displayed a binding signal of 0.727 enrichment R.
B4: the binding signal is 1.33 enrichment R.
Molecule B5 had a binding signal of 0.413 enrichment R.
The molecule B6 had a binding signal of 0.491 enrichment R.
In turn, B7 displayed a binding signal of 0.761 enrichment R.
Then B8, with 24 enrichment R; and B9, with 0.951 enrichment R; and B10, with 0.493 enrichment R.
In turn, B11 had a binding signal of 4.8 enrichment R.
As for B12, the binding signal was found to be 1.24 enrichment R.
The molecule B13 had a binding signal of 0.476 enrichment R.
The molecule B14 registered a binding signal of 0.65 enrichment R.
Molecule B15 gave a binding signal of 0.421 enrichment R.
B16: the binding signal is 0.663 enrichment R.
As for B17, the binding signal is 0.299 enrichment R.
Turning to B18, the binding signal amounted to 1.2 enrichment R.
Then B19, with 1.04 enrichment R; and B20, with 1.35 enrichment R; and B21, with 1.87 enrichment R.
The molecule B22 showed a binding signal of 1.17 enrichment R.

Source of the values: article PMC12136788.
